In all, about 48,000 compounds went through this assay and about 120 (0.25%) were called active. Not shown: some 4% with an inconclusive outcome. Calls come from the whole dose curve; as a rule, active = well fitted activation curve with a large enough effect; inconclusive = small, poorly fitted or top-dose-only effect, or another doubt; inactive = no such curve, though single readings can be large or run the other way. The list shows a part of the results.
assay: Primary qHTS for Identification of Small Molecule Activators of Huntingtin-Antisense Promoter Activity; conditions: HEK293 HTT-AS promoter firefly luciferase reporter, 24 h; series mostly up to 57.5 µM; activity change, positive = activation: at the top concentration; note: nearly all actives have a fitted effect of over 55% in size
Method in brief: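 Luminescence was read after Dual-Glo reagent and a 10 min room-temperature incubation. Values were normalized to vehicle (0% activity) and zero RLU (-100% activity). Reporter HEK293 cells had been exposed to compounds (up to 57.5 uM final) for 24 h.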

Activity change, positive = activation, inactive:
CCOc1ccc(CCNC(=O)C2CCN(C(=O)N3CC(CC)Oc4ccc(C)cc43)CC2)cc1 (centres undefined) -47%
CCn1c(CNC(=O)c2ccc(OC)cc2)nnc1SCC(=O)Nc1cccc(C)c1C 3.15%
Cc1ccc(NC(=O)CSc2nc3ccc(NC(=O)c4cccs4)cc3s2)c(C)c1 -29%
COc1cccc(Cn2c(=O)n(-c3cccc(Cl)c3C)c(=O)c3c4c(sc32)CN(C(C)=O)CC4)c1 -38.7%
CCOC(=O)c1c(C)oc2nc(C)nc(NCC3CCN(Cc4cccc(C)c4)CC3)c12 -16.7%
CC(COc1ccccc1)NC(C)C(O)c1ccc(O)cc1 (centres undefined) -2.99%
CCc1cnc2c(c1SCC(=O)Nc1ccc(Cl)cc1)c(=O)n(C)c(=O)n2C -19.9%
COc1ccc(-c2cc(C(F)F)n3ncc(C(=O)Nc4cc(OC)ccc4OC)c3n2)cc1 0.86% [at 11.5 µM, percent change from vehicle, -100% = no light]
CCOc1ccc(NC(=O)Cc2coc3ccc(C)cc23)cc1 3.05%
COc1ccccc1NC(=O)CSc1ccc(-c2sc(C)nc2C)nn1 -13.1%
COc1cccc(CNCCSc2nnnn2C)c1OCc1ccc(Cl)cc1Cl -30.3%
CCC(Nc1ccc(-c2nc(-c3ccco3)no2)cc1[N+](=O)[O-])c1ccccc1 (centres undefined) -14.9%
COc1ccc(C2c3cccn3CCN2S(=O)(=O)c2ccccc2[N+](=O)[O-])cc1OC (centres undefined) -27%
O=C(NCC(c1ccc2c(c1)OCO2)N1CCOCC1)c1ccccc1F (centres undefined) 24.3%
O=C(NCc1ccccc1)c1nnc(Cc2cccc(F)c2)o1 -4.16%
CCc1ccc2occ(CC(=O)Nc3c(C(=O)Nc4ccc(OC)cc4)oc4ccccc34)c2c1 -6.7%
Cc1cccn2cc(-c3cccc(NS(=O)(=O)c4ccc(Cl)c(Cl)c4)c3)nc12 -6.6%
CC(C)(C)c1ccc(C(O)CCCN2CCC(C(O)(c3ccccc3)c3ccccc3)CC2)cc1 (centres undefined) -2.13%
CC(CNC(=O)Cn1ccc2cc(S(=O)(=O)N3CCCCC3)ccc21)c1ccccc1 (centres undefined) -31.3%
COc1ccc(N2CC(NC(=O)C3CC3)CC2=O)cc1 (centres undefined) -9.45%
CC(=O)c1cccc(NC(=O)[C@H](Cc2ccccc2)N2Cc3ccccc3C2=O)c1 -4.5%
CCC(NC(=O)Nc1ccc(OC)c(OC)c1)c1c(-n2cccc2)sc2c1CCN(C)C2 (centres undefined) -7.81%
COc1ccccc1C(=O)NCCSc1c(C)[nH]c2ccccc12 -43.8%
COc1cccc(NC(=O)CSc2nc(=O)n(Cc3ccccn3)c3c2CCC3)c1 -16.8%
O=c1oc2ccc3ccccc3c2cc1-c1nnc(Nc2ccc(Cl)cc2Cl)s1 3.08%
COc1ccc(CCNC(=O)c2ccc3c(c2)N=C(C)c2cc(C)ccc2S3)cc1OC -36%
CCc1ccc(NC(=O)Cn2c(=O)c(CNc3ccccc3)cc3cc(OC)c(OC)cc32)cc1 -12.3%
Cc1cccc(NC(=O)C2CCCN(S(=O)(=O)c3c(C)[nH]c(=O)[nH]c3=O)C2)c1C (centres undefined) -18.4%
COc1ccc(-c2nc3ccccc3o2)cc1NC(=O)C(C)(C)Oc1ccc(Br)cc1 -15%
CCOc1ccc(-n2cc(-c3ccccc3)c3c(NC4CCCCC4)ncnc32)cc1 -12.3%
Cc1nn(-c2ccccc2)c(OC(=O)c2ccccc2Cl)c1S(=O)(=O)c1ccccc1 -10.1%
COc1ccc2c(c1)c1c(c(=O)n(-c3cccc(Cl)c3)c(=O)n1CC(=O)NCC1CCCO1)n2C (centres undefined) -5.54%
CCOc1ccc(-c2nnc(SCC(=O)NCc3ccc(C)cc3)nc2-c2ccc(OCC)c(OC)c2)cc1OC -19.3%
CCOc1ccc(NC(=O)CSC2=Nc3ccccc3C3=NC(CCC(=O)NCc4cccs4)C(=O)N23)cc1 (centres undefined) 3.29%
COCCNC(=O)Cn1cnc2sc(C)c(S(=O)(=O)N3CCN(c4ccccc4OC)CC3)c2c1=O 9.84%
CCc1nn2c(=O)cc(COC(=O)c3ccccc3NC(=O)COc3ccc(F)cc3)nc2s1 11.9%
CCOC(=O)c1[nH]c(C)c(CCC(=O)Nc2cccc(C(F)(F)F)c2)c1C -14.2%
COc1cc(CNCCSc2nnnn2C)ccc1OCc1ccc(F)cc1 -4.09%
CC(CNC(=O)c1nnc(Cc2cccc(F)c2)o1)c1ccccc1 (centres undefined) -13.8%
CCOC(=O)c1sc(NC(=O)C(C)Oc2ccc(OC)cc2)c(C(=O)OCC)c1C (centres undefined) -4.04%
COc1ccc(C(=O)Nc2cc(-c3ccccc3)nn2-c2ccccc2)cc1 -5.7%
CCOC(=O)c1cccc(NC(=O)c2cc3cc4cc(OC)ccc4nc3s2)c1 -9.27%
Cc1ccc(NC(=O)COc2ccc(-c3nn(C)c(=O)c4ccccc34)cc2)cc1 -35.9%
COc1ccc(C)cc1NC(=O)CN1C(=O)COc2ccc(S(=O)(=O)N3CCOCC3)cc21 -3.43%
O=C(COCc1cc(-c2cccs2)on1)Nc1cc(Cl)ccc1O -9.2%
Cc1nc(-c2ccc(OCC(C)C)c(C#N)c2)sc1C(=O)O
CN(C)c1ccc(CNC(=O)C2CCCN(S(=O)(=O)c3ccc4c(ccn4C)c3)C2)cc1 (centres undefined) -30.8%
CCOc1ccccc1NC(=O)Cn1c(=O)oc2cc(S(=O)(=O)NCc3ccccc3)ccc21 -2.6%
COC(=O)C1=C(C)NC(=O)C1(NC(=O)c1ccc(Cl)cc1)C(F)(F)F (centres undefined) -0.0679%
CCN1CCC(N(Cc2cccc(OC)c2)C(=O)Nc2cccc(C)c2C)CC1 -14.3%
CC1=Nc2cc(C(=O)NCc3ccc(C)cc3)ccc2Sc2ccc(Cl)cc21 -28.7%
CCNC(=O)CCCC=CC[C@@H]1[C@H](C=CC(O)CCc2ccccc2)[C@@H](O)C[C@@H]1O (some centres undefined) -6.66%
COc1ccc2cc([S+]([O-])Cc3ncc(C)c(OC)c3C)nc2c1 1.79%
COc1cccc(N2CCN(C(=O)CCS(=O)(=O)c3ccc4c(c3)CC(=O)N4C)CC2)c1 -2.32%
O=C(Cn1c(=O)oc2cc(S(=O)(=O)N3CCCC3)ccc21)NCc1ccc(Cl)cc1 -28.3%
Cc1ncc(CO)c2c1Oc1nc(-c3ccccc3)nc(SCC(=O)N3CCCCC3)c1C2 -1.73%
CCN(CC)C(=O)Cn1c(=O)n(Cc2ccc(C(=O)NCc3ccc(C)cc3)cc2)c(=O)c2ccccc21 -10.2%
CS(=O)(=O)N1CCc2cc(C(=O)Nc3ccc(Cl)c(C(F)(F)F)c3)ccc21 -45.9%
CCOCCCNC(=O)c1cc2c(=O)n(C)c3ccccc3c2n1C -19%
